Data published in patent US20230089620A1 (JIANGSU HENGRUI PHARMACEUTICALS, published 2023).

Experiments:
[1] = molecular target: T1, IL-2Rβ (CD2-H5221, Acrobiosystem) (UniProt P14784 27-239); experiment: Octet, steady-state fit, fusion protein stationary, IL-2Rβ mobile
T1 construct: Bought reagent
T1 sequence (looked up): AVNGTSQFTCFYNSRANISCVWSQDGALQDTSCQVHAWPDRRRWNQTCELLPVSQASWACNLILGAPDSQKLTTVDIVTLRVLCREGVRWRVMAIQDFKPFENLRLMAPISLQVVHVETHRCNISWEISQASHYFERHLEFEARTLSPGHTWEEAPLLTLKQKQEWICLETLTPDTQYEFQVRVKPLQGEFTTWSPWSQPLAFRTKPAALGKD

[2] = molecular target: T2, IL-2Rα (ILA-H52H9, Acrobiosystem) (UniProt P01589 22-217, limits assumed); experiment: Octet, fusion protein on Protein A sensor, IL-2Rα 100-3.125 nM, 1:1 kinetic fit
T2 construct: Bought reagent
T2 sequence (looked up): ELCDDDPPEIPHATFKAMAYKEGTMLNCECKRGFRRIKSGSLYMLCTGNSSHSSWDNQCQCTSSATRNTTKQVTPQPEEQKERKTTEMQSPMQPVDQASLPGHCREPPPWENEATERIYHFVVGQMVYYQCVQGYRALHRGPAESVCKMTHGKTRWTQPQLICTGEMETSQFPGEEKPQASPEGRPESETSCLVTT

[3] = molecular target: T2, IL-2Rα (ILA-H52H9, Acrobiosystem); experiment: Octet, fusion protein on Protein A sensor, IL-2Rα 100-3.125 nM in solution

B1: A2-22-b fusion protein (IL-2 T3A - (G4S)5 - N-terminus of the light chain of A2-22) (other)
heavy: QVQLVQSGAEVKKPGASVKVSCKASGYTFTSYYMHWVRQAPGQGLEWMGIINPSGGSTSYAQKFQGRVTMTRDTSTSTVYMELSSLRSEDTAVYYCAREDWMEYEYYYGMDVWGQGTLVTVSS[letters of human IgG1 constant region with changes not shown]
light: [letters of about 150 residues not shown]GGGGSGGGGSGGGGSGGGGSGGGGSEIVLTQSPGTLSLSPGERATLSCRASQSVSNNYLAWYQQKPGQAPRLLIYGASSRATGIPDRFSGSGSGTDFTLTISRLEPEDFAVYSCQQYGSSPLTFGQGTRLEIKRTVAAPSVFIFPPSDEQLKSGTASVVCLLNNFYPREAKVQWKVDNALQSGNSQESVTEQDSKDSTYSLSSTLTLSKADYEKHKVYACEVTHQGLSSPVTKSFNRGEC
notes: Antibody-IL-2 fusion protein; human IL-2 with T3A joined by a (G4S)5 linker; IgG1 LALA
binding result [1]: no binding | Kd [2]: 25.3 nM | koff [2]: 0.0413 s⁻¹ | kon [2]: 1.63e+06 M⁻¹ s⁻¹

B2: A2-22-a fusion protein (IL-2 T3A - (G4S)5 - N-terminus of the heavy chain of A2-22) (other)
heavy: [letters of about 150 residues not shown]GGGGSGGGGSGGGGSGGGGSGGGGSQVQLVQSGAEVKKPGASVKVSCKASGYTFTSYYMHWVRQAPGQGLEWMGIINPSGGSTSYAQKFQGRVTMTRDTSTSTVYMELSSLRSEDTAVYYCAREDWMEYEYYYGMDVWGQGTLVTVSS[letters of human IgG1 constant region with changes not shown]
light: EIVLTQSPGTLSLSPGERATLSCRASQSVSNNYLAWYQQKPGQAPRLLIYGASSRATGIPDRFSGSGSGTDFTLTISRLEPEDFAVYSCQQYGSSPLTFGQGTRLEIKRTVAAPSVFIFPPSDEQLKSGTASVVCLLNNFYPREAKVQWKVDNALQSGNSQESVTEQDSKDSTYSLSSTLTLSKADYEKHKVYACEVTHQGLSSPVTKSFNRGEC
notes: as for B1
binding result [1]: no binding | Kd [2]: 40.6 nM | koff [2]: 0.0375 s⁻¹ | kon [2]: 922000 M⁻¹ s⁻¹

B5: D3-68-b fusion protein (IL-2 T3A - (G4S)5 - N-terminus of the light chain of D3-68) (other)
heavy: QVQLVQSGPEVKKPGASVKVSCKASGYTFTSYGISWVRRAPGQGLEWMGWISAYNGNTNYAQKLQGRVTMTTDTSTSTAYMELRSLRSDDTAVYYCARDLQSPTYYYGSGVIDYWGQGTLVTVSS[letters of human IgG1 constant region with changes not shown]
light: [letters of about 150 residues not shown]GGGGSGGGGSGGGGSGGGGSGGGGSDIQLTQSPSTLSASVGDRVTISCRASRAVSPWLAWYQHRPGQAPKLLIYAASSLQSGVPSRFSGSGSGTDFTLTISSLQPEDFATYYCQQYRSYPFTFGPGTTVDIRRTVAAPSVFIFPPSDEQLKSGTASVVCLLNNFYPREAKVQWKVDNALQSGNSQESVTEQDSKDSTYSLSSTLTLSKADYEKHKVYACEVTHQGLSSPVTKSFNRGEC
notes: as for B1
Kd [1]: 1100 nM | binding result [3]: no binding (tested: 100 nM (highest IL-2Rα concentration))

Now from value to binder, other results behind:

binding result [1]: no binding
B3: A3-21-a fusion protein (IL-2 T3A - (G4S)5 - N-terminus of the heavy chain of A3-21) (other)
heavy: [letters of about 150 residues not shown]GGGGSGGGGSGGGGSGGGGSGGGGSEVQLLESGGGLAQPGGSLRLSCAGSGFTFSSYAMSWVRQAPGKGLEWVSGITGTGYRTYYADSVKGRFTVSRDNSRNTVYLQMNSLRAEDTAVYYCVRESGHYYGWFDSWGQGTLVTVSS[letters of human IgG1 constant region with changes not shown]
light: QSALTQPPSVSGAPGQRVTISCTGSSSNIGAGYNVHWYQQVPGTVPKLLIDGKGNRPSGVPDRFSGSKSGTSASLAITGLQAEDEADYYCQSYDYMLSGSVVFGRGTKLTVLGQPKANPTVTLFPPSSEELQANKATLVCLISDFYPGAVTVAWKADGSPVKAGVETTKPSKQSNNKYAASSYLSLTPEQWKSHRSYSCQVTHEGSTVEKTVAPTECS
notes: as for B1
binding result [3]: no binding (tested: 100 nM (highest IL-2Rα concentration))

binding result [1]: no binding | Kd [2]: 45.1 nM | koff [2]: 0.0561 s⁻¹ | kon [2]: 1.24e+06 M⁻¹ s⁻¹
B4: D2-60-b fusion protein (IL-2 T3A - (G4S)5 - N-terminus of the light chain of D2-60) (other)
heavy: QVQLVQSGAEVKKPGASVKVSCKASGYTFTSYGISWVRQAPGQGLEWMGWISAYNGNTNYAQKLQGRVTMTTDTSTSTAYMELRSLRSDDTAVYYCAREYSSWYSGGMDVWGQGTTVTVSS[letters of human IgG1 constant region with changes not shown]
light: [letters of about 150 residues not shown]GGGGSGGGGSGGGGSGGGGSGGGGSDIQMTQSPSSLSASVGDRVTITCRASQGISNYLAWYQQKPGKVPKLLIYAASTLQSGVPSRFSGSGSGTDFTLTISSLQPEDVATYYCQKYDSAPFTFGQGTRLEIKRTVAAPSVFIFPPSDEQLKSGTASVVCLLNNFYPREAKVQWKVDNALQSGNSQESVTEQDSKDSTYSLSSTLTLSKADYEKHKVYACEVTHQGLSSPVTKSFNRGEC
notes: as for B1

One block for each binder: values may come before it.
